# Experimental data from paper PMC6919601, “Identification of Plasmodium dipeptidyl aminopeptidase allosteric inhibitors by high throughput screening” (PLoS ONE, 2019).
# The campaign covered roughly 110,000 compounds. About 230 (0.21%) showed an effect of 50% or more. The list shows a part of the results. Where a SMILES comes first, the peptide text is derived from it. The star is where a group is joined. Boc = CC(C)(C)OC(=O)*
# Molecular target: DPAP1 (Plasmodium falciparum, UniProt Q8IIJ9)
# Assay: primary screen, percent inhibition; read by cleavage of a fluorogenic dipeptide substrate; higher = more effect of the substance
# Set-up: species or system P. falciparum D10 trophozoite lysates; single well
# 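Further: 30 min substrate incubation versus DMSO and 10 µM JCP410 controls.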
# DPAP1, sequence (Q8IIJ9 whole entry, looked up): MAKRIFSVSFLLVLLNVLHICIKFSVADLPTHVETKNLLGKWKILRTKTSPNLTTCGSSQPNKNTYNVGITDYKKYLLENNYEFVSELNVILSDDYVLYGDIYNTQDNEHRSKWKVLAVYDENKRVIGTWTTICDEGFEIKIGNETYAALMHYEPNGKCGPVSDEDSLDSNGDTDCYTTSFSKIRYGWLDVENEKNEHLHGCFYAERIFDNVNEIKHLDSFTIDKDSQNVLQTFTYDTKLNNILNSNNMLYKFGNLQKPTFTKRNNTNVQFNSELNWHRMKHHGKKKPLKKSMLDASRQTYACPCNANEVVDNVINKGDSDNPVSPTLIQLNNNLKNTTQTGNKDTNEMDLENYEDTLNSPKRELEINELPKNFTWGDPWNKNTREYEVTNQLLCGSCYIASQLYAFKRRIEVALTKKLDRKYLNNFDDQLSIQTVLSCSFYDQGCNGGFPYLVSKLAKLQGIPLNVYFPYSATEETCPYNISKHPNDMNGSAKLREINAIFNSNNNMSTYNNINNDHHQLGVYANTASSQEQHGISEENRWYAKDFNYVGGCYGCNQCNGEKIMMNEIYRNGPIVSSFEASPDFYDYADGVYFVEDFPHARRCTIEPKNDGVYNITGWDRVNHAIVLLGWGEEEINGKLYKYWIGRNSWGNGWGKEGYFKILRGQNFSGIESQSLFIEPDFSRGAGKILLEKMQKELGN
row,Structure (SMILES),% Inhibition @ 10 uM [%]
1,CC(=O)c1ccc(N2C(=O)C3C4C=CC(CO)(O4)C3C2=O)cc1 (stereo not drawn),-1.3
2,Cc1nn(Cc2ccc(F)cc2)c(C)c1NC(=O)C1CCCC1,1.96
3,CCOC(=O)C1=C(C)N=c2s/c(=C\c3ccccn3)c(=O)n2C1c1ccccc1 (stereo not drawn),-2.91
4,Nc1nc(Nc2ccc(O)cc2)nc2ccccc12,-0.519
5,COc1ccc(NC(=O)c2cccc(OC(F)F)c2)cc1Cl,1.88
6,c1cncc(CN2CCc3c([nH]c4ccccc34)C2)c1,-1.98
7,Cc1ccc(-c2nnc3s/c(=C\c4ccc(Cl)cc4)c(=O)n23)cc1,-1.33
8,Cn1c2c(c3ccccc31)CCc1nonc1-2,-4.68
9,CS(=O)(=O)CCC(C(=O)Nc1nccs1)N1Cc2ccccc2C1=O (stereo not drawn),-4.1
10,COc1ccc(NC(=O)C(C)N(c2ccccc2)S(C)(=O)=O)cc1OC (stereo not drawn),-13.8
11,CCCC(C)c1c(O)n(CC)c(SCc2ccccc2)nc1=O (stereo not drawn),0.0792
12,CC(Cc1c[nH]c2ccccc12)NC(=O)c1ccc([N+](=O)[O-])cc1 (stereo not drawn),3.34
13,Cc1c(Cc2ccccc2)c(=O)oc2c3c(ccc12)OCN(c1cccnc1)C3,-7.44
14,Cc1cc(C)cc(OCC(=O)NCCCN2CCOCC2)c1,-1.33
15,CC1CCCC(NC(=O)c2csc3c2CCCC3)C1C (stereo not drawn),-3.21
16,Cc1cc(-c2cccs2)c2c(n1)sc1c(=O)[nH]c(=O)[nH]c12,1.86
17,CCOC(=O)c1c(NC(=O)c2ccc(Cl)c([N+](=O)[O-])c2)sc2c1CCCC2,-0.239
18,Cc1ccc2c(CNCCCc3ccccc3)c(C(=O)O)n(Cc3ccc(F)cc3)c2c1,-2.39
19,c1ccc(-c2nnc(SCc3cccnc3)o2)cc1,-2.63
20,Cn1/c(=N\c2ccccc2)sc2ccccc21,-0.116
21,CC(Oc1ccccc1F)C(=O)NCc1ccc2c(c1)OCO2 (stereo not drawn),0.231
22,Cc1ccc(Cn2ccc(NC(=O)c3cc4n(n3)C(C(F)(F)F)CC(c3ccco3)N4)n2)cc1 (stereo not drawn),4.08
23,Nc1ncnc2[nH]c(SCc3ccc4nsnc4c3)nc12,8.97
24,CCOC(=O)c1sc(-c2ccccc2)cc1NC(=O)c1cc(=O)c2ccccc2o1,4.67
25,COc1ccc(OC)c(S(=O)(=O)N2CCN=C2c2ccccc2)c1,2.53

row,Structure (SMILES),% Inhibition @ 10 uM [%]
1,O=C(CN1C(=O)c2ccccc2S1(=O)=O)Nc1cccc(Cl)c1,-8.92
2,CCO/C(O)=C(\C#N)C(=N)C(F)(F)F,-3.78
3,CC(C)(C)c1ccc(-c2ncccc2O)cc1,-0.128
4,Cc1ccc(CNC(=O)Nc2cn(C)c(=O)c3ccccc23)cc1,3.96
5,O=C(NCc1ccncc1)c1cc(Cl)ccc1Cl,-3.49
6,c1cncc(CN2CCCCCC2)c1,-3.56
7,CC(=O)c1c(S)nc(-c2ccccc2)nc1N1CCCC1,4.74
8,COc1ccccc1C(=O)CC1(O)C(=O)N(Cc2ccc(Cl)cc2)c2ccccc21 (stereo not drawn),-13.8
9,COc1ccccc1CNC(=O)c1cc2sccc2n1C,-6.68
10,O=C(CCC1CCCCC1)N1CCN(CCN2C(=O)c3ccccc3C2=O)CC1,-4.42
11,Cc1ccc(CCN2CC(C(=O)NC3CCCC3)CC2=O)cc1 (stereo not drawn),1.62
12,CC1(C)Oc2ccc3ccc(=O)oc3c2C(/C=N/CCO)=C1O,3.73
13,CC1(C)CC(CCNCc2ccc(O)cc2)(c2ccccc2)CCO1 (stereo not drawn),3.96
14,O=C(O)/C=C/c1ccc(-c2ccc(Cl)c(Cl)c2)o1,-0.053
15,CCOC(=O)N1CCN(C(=O)CN(c2ccccc2F)S(=O)(=O)c2ccccc2)CC1,5.07
16,Cn1c(=O)c2c(nc(Sc3ncnn3CC(=O)N3CCOCC3)n2C)n(C)c1=O,-3.41
17,Cn1c(=O)[nH]c(=O)c2c1nc(N1CCOCC1)n2CCCSc1ncccn1,2.41
18,O=C(NCCc1ccccc1)C1CCN(c2nc3ccccc3n3cnnc23)CC1,5.9
19,N#CC1=C(N)Oc2[nH]nc(-c3ccc(Cl)s3)c2C12C(=O)Nc1ccccc12 (stereo not drawn),0.658
20,C=CCn1c(=O)c(C(=O)Nc2nc(C3C4CC5CC(C4)CC3C5)cs2)c(O)c2ccccc21 (stereo not drawn),7
21,CC(C)(C)C1CCc2c(sc(NC(=O)c3ccccc3Cl)c2C(=O)NCCO)C1 (stereo not drawn),14.2
22,CN(C)Cc1cc(C(C)(C)C)c(O)c(C(C)(C)C)c1,-5.35
23,COC(=O)C1=C(C)NC(=O)CC1c1ccccc1C(F)(F)F (stereo not drawn),1.88
24,COc1ccc(C2C(C#N)=C3N=C(N)c4c(sc5c4CCCC5)N3C3=C2C(=O)CCC3)cc1OC (stereo not drawn),-2.39
25,COc1ccc(C(=O)N(Cc2ccccc2)Cc2ccccc2)cc1OC,-0.192

row,Structure (SMILES),% Inhibition @ 10 uM [%]
1,CC(C)CN1C(=O)c2ccccc2C(C(=O)NCc2ccc3c(c2)OCO3)C1c1cccs1 (stereo not drawn),-3.77
2,CCOc1cc(C2C(C(=O)OC)=CN(C)C=C2C(=O)OC)ccc1O,-3.23
3,COc1cccc(CN2CCN(Cc3cccc(OC)c3OC)CC2)c1OC,-2.58
4,Fc1ccc2c(c1)[C@@H]1C=CC[C@@H]1[C@H](c1ccccc1)N2,1.37
5,COc1ccccc1C1CC(=O)NC(SCC(=O)N2CCCC2)=C1C#N (stereo not drawn),0.343
6,CCOC(=O)c1c(NS(=O)(=O)c2ccc(C)cc2)sc(C)c1C,7.93
7,O=C(C1=C(O)C(=O)N(CCCO)C1c1ccccc1)c1ccc(Br)cc1 (stereo not drawn),-13.3
8,Cc1ccc(C2C(C#N)=C(N)Oc3c2c(C)nn3-c2ccc(C)cc2)cc1 (stereo not drawn),-0.941
9,Cc1c(C(=O)NCCc2ccc(Cl)cc2)oc2ccc3c(c12)C(=O)CC(C)(C)O3,4.83
10,O=C(NC1CCCc2ccccc21)C1CCCN(S(=O)(=O)c2c[nH]cn2)C1 (stereo not drawn),-4.1
11,COc1cc(Br)cc(-c2nc3ccccc3s2)c1O,-4.15
12,COc1ccccc1-n1cnc2cc(C(=O)N3CCOCC3)ccc21,2.8
13,Nc1nc2ccccc2n1Cc1cccc2nonc12,-8.3
14,COc1cc(OC)c(OC)cc1CN1CCNCC1,-5.98
15,CCc1c(C)nc2cc(-c3ccccc3)nn2c1O,-3.84
16,CCCC12CN3CC(CCC)(CN(C1)C3c1ccc(O)c(OC)c1)C2=O (stereo not drawn),0.222
17,Cc1ccc(/C=C(/C#N)c2nc(-c3cc4ccccc4oc3=O)cs2)cc1,0.912
18,CCN(CC)CCNC(=O)CS(=O)Cc1nc(-c2ccc(OC)c(OC)c2)oc1C (stereo not drawn),-1.05
19,COc1ccc(-c2cc(C(=O)Nc3ccccc3C(N)=O)c3ccccc3n2)cc1OC,3.86
20,OC(CNCCc1ccccc1)Cn1nnnc1-c1ccccc1 (stereo not drawn),1.49
21,Cc1oc(-c2cccc(Cl)c2)nc1CS(=O)(=O)CC(=O)NC1CCC(C)CC1 (stereo not drawn),2.04
22,CC1CC2=Nc3ncnn3C(c3ccccc3)C2=C(O)C1 (stereo not drawn),3.36
23,COC(=O)c1cc(S(=O)(=O)NCCc2ccc(SC)cc2)c[nH]1,2.29
24,Cc1ccc(C2C(=O)c3ccccc3C2=O)c(C)c1C,-4.21
25,COc1ccc(C2C(C(=O)NCC3CCCO3)c3ccccc3C(=O)N2Cc2ccc(F)cc2)cc1 (stereo not drawn),3.61

row,Structure (SMILES),% Inhibition @ 10 uM [%]
1,Oc1ncc(CN2CCOCC2)c(O)n1,-4.15
2,CCCCN1CCc2nc(S)nc(O)c2C1,-6.08
3,COc1ccc2nc(-c3ccco3)c(-c3ccco3)nc2c1,7.56
4,CCCCOc1ccc(-c2c(C#N)c(N)nc(SCc3ccc(Cl)cc3)c2C#N)cc1,0.937
5,Cc1ccc(NC(=O)COc2ccccc2C)cc1C,1.59
6,Cc1cc(C)c2c(n1)SCC(=O)N2CC(=O)NCCCOC(C)C,-2.37
7,O=C(CSc1nc2c(c(=O)n1CCc1ccccc1)SCC2)N1CCOCC1,0.0147
8,C#CC(CO)NCc1ccccc1 (stereo not drawn),-1.76
9,CC(C)(C)OC(=O)N1CCCC1C(=O)NC(Cc1ccccc1)C(=O)O (stereo not drawn) (Boc-Pro-Phe-OH; configuration not given here),0.275
10,C=CCSc1nc(SCC=C)c2cnc(N3CCN(C)CC3)nc2n1,0.751
11,COc1ccc(CN2CC(C(=O)NCc3ccccc3Cl)CC2=O)cc1 (stereo not drawn),-1.79
12,Cc1ccccc1NC(=O)CN1C(=O)N/C(=C\c2cccn2-c2cccc(C(=O)O)c2)C1=O,5.03
13,COc1ccccc1-c1cc2nc(C)c(CCC(=O)N3CCCC3)c(C)n2n1,2.93
14,CCOCCCNC(=O)C(Cc1ccccc1)NS(=O)(=O)c1cccc2nsnc12 (stereo not drawn),-3.23
15,CCCN1C/C(=C\c2ccc(F)cc2)C(=O)/C(=C/c2ccc(F)cc2)C1,1.63
16,Cc1ccccc1-c1nnc2n1C(C)(C)Cc1ccccc1-2,-0.267
17,COc1ccc(C(=O)N2CCC3(CC2)N=C(c2ccc(C)c(C)c2)C(=O)N3)cc1,4.44
18,O=C(Nc1cccc(C(=O)Nc2ccccc2Cl)c1)c1ccc([N+](=O)[O-])cc1,-0.268
19,Cc1ccc(S(=O)(=O)N(CC(=O)NC2CCCC2)c2ccc(Br)cc2)cc1,-5.88
20,Cc1ccc(OC(C)C(=O)Nc2cc(C)ccc2C)cc1 (stereo not drawn),-2.19
21,CCOC(=O)C1=C(NC(=O)c2ccc(C)cc2)S/C(=C\c2ccc(OCC(=O)O)cc2)C1=O,6.28
22,COc1ccc(CCCC(=O)Nc2cccc(Br)c2)cc1,-6.94
23,CCOC(=O)C1CCCN(CC2=CC[C@H]3C[C@@H]2C3(C)C)C1 (stereo partly drawn),1.62
24,Cc1ccc(-n2nnc(-c3nsc(NC(=O)c4ccccc4Cl)n3)c2C)cc1,-1.71
